According to the supplement of paper PMC10724272:

These test systems were tested with CC[C@H](C)C[C@H](C)CCCCCCCCC(=O)N[C@H]1C[C@@H](O)[C@@H](NCCN)NC(=O)[C@@H]2[C@@H](O)CCN2C(=O)[C@H]([C@H](O)CCN)NC(=O)[C@H]([C@H](O)[C@@H](O)c2ccc(O)cc2)NC(=O)[C@@H]2C[C@@H](O)CN2C(=O)[C@H]([C@@H](C)O)NC1=O [caspofungin] (assay: CLSI broth microdilution.).
For “Candida tropicalis isolate 379 (ERG11 copies: 2, Erg11p: no key change)”, the MIC was 0.015 mg/L [S]. In the case of “Candida tropicalis isolate 395 (ERG11 copies: 2, Erg11p: no key change)”, the MIC is reported as 0.06 mg/L [S]. Work on “Candida tropicalis isolate 196 (ERG11 copies: 2, Erg11p: no key change)” yielded an MIC of 0.03 mg/L [S]. For “Candida tropicalis isolate 190 (ERG11 copies: 5, Erg11p: Y132F, S154F (heterozygous))”, the MIC was 0.03 mg/L [S]. For “Candida tropicalis isolate 304 (ERG11 copies: 2, Erg11p: Y132F, S154F (heterozygous))”, the MIC was 0.03 mg/L [S]. Work on “Candida tropicalis isolate 173 (ERG11 copies: 2, Erg11p: no key change)” yielded an MIC of 0.03 mg/L [S]. With “Candida tropicalis isolate 200 (ERG11 copies: 2, Erg11p: no key change)” the MIC was 0.12 mg/L [S]. “Candida tropicalis isolate 255 (ERG11 copies: 2, Erg11p: no key change)” was tested, and the MIC was 0.06 mg/L [S]. “Candida tropicalis isolate 116 (ERG11 copies: 2, Erg11p: no key change)” was tested, and the MIC was 0.03 mg/L [S]. With “Candida tropicalis isolate 123 (ERG11 copies: 2, Erg11p: Y132F, S154F (heterozygous))” the MIC was 0.06 mg/L [S]. “Candida tropicalis isolate 214 (ERG11 copies: 2, Erg11p: no key change)” gave an MIC of 0.03 mg/L [S]. In the case of “Candida tropicalis isolate 70 (ERG11 copies: 7, Erg11p: Y132F, S154F (heterozygous))”, the MIC is reported as 0.03 mg/L [S]. For “Candida tropicalis isolate 144 (ERG11 copies: 2, Erg11p: no key change)”, the MIC was 0.03 mg/L [S]. With “Candida tropicalis isolate 263 (ERG11 copies: 6, Erg11p: Y132F, S154F (heterozygous))” the MIC was 0.03 mg/L [S]. Test System “Candida tropicalis isolate 102 (ERG11 copies: 2, Erg11p: no key change)” has an MIC of 0.03 mg/L [S]. For “Candida tropicalis isolate 242 (ERG11 copies: 2, Erg11p: no key change)”, the MIC was 0.015 mg/L [S]. In the case of “Candida tropicalis isolate 372 (ERG11 copies: 2, Erg11p: no key change)”, the MIC is reported as 0.06 mg/L [S]. For “Candida tropicalis isolate 310 (ERG11 copies: 2, Erg11p: no key change)”, the MIC was 0.25 mg/L [S]. “Candida tropicalis isolate 129 (ERG11 copies: 7, Erg11p: Y132F, S154F (heterozygous))” showed an MIC of 0.03 mg/L [S]. With “Candida tropicalis isolate 16 (ERG11 copies: 2, Erg11p: no key change)” the MIC was 0.06 mg/L [S]. With “Candida tropicalis isolate 136 (ERG11 copies: 2, Erg11p: no key change)” the MIC was 0.03 mg/L [S]. In the case of “Candida tropicalis isolate 207 (ERG11 copies: 2, Erg11p: Y132F, S154F (homozygous))”, the MIC is reported as 0.03 mg/L [S]. For “Candida tropicalis isolate 46 (ERG11 copies: 2, Erg11p: no key change)”, the MIC was 0.03 mg/L [S]. “Candida tropicalis isolate 389 (ERG11 copies: 2, Erg11p: no key change)” was tested, and the MIC was 0.06 mg/L [S].

The test systems below were run with CCCCCOc1ccc(-c2cc(-c3ccc(C(=O)N[C@H]4C[C@@H](O)[C@@H](O)NC(=O)[C@@H]5[C@@H](O)[C@@H](C)CN5C(=O)[C@H]([C@H](O)CC(N)=O)NC(=O)[C@H]([C@H](O)[C@@H](O)c5ccc(O)c(OS(=O)(=O)O)c5)NC(=O)[C@@H]5C[C@@H](O)CN5C(=O)[C@H]([C@@H](C)O)NC4=O)cc3)no2)cc1 [micafungin] (assay: CLSI broth microdilution.).
For “Candida tropicalis isolate 140 (ERG11 copies: 2, Erg11p: Y132F, S154F (heterozygous))”, the MIC was 0.03 mg/L [S]. Test System “Candida tropicalis isolate 152 (ERG11 copies: 2, Erg11p: no key change)” has an MIC of 0.015 mg/L [S]. For “Candida tropicalis isolate 165 (ERG11 copies: 2, Erg11p: no key change)”, the MIC was 0.03 mg/L [S]. “Candida tropicalis isolate 193 (ERG11 copies: 8, Erg11p: Y132F, S154F (heterozygous))” gave an MIC of 0.03 mg/L [S]. Work on “Candida tropicalis isolate 316 (ERG11 copies: 2, Erg11p: Y132F, S154F (heterozygous))” yielded an MIC of 0.06 mg/L [S]. “Candida tropicalis isolate 240 (ERG11 copies: 2, Erg11p: no key change)” showed an MIC of 0.03 mg/L [S]. “Candida tropicalis isolate 418 (ERG11 copies: 2, Erg11p: no key change)” was tested, and the MIC was 0.03 mg/L [S]. In the case of “Candida tropicalis isolate 379 (ERG11 copies: 2, Erg11p: no key change)”, the MIC is reported as 0.015 mg/L [S]. For “Candida tropicalis isolate 395 (ERG11 copies: 2, Erg11p: no key change)”, the MIC was 0.03 mg/L [S]. “Candida tropicalis isolate 196 (ERG11 copies: 2, Erg11p: no key change)” was tested, and the MIC was 0.03 mg/L [S]. Test System “Candida tropicalis isolate 190 (ERG11 copies: 5, Erg11p: Y132F, S154F (heterozygous))” has an MIC of 0.03 mg/L [S]. “Candida tropicalis isolate 304 (ERG11 copies: 2, Erg11p: Y132F, S154F (heterozygous))” showed an MIC of 0.03 mg/L [S]. For “Candida tropicalis isolate 173 (ERG11 copies: 2, Erg11p: no key change)”, the MIC was 0.03 mg/L [S]. For “Candida tropicalis isolate 200 (ERG11 copies: 2, Erg11p: no key change)”, the MIC was 0.03 mg/L [S]. “Candida tropicalis isolate 255 (ERG11 copies: 2, Erg11p: no key change)” showed an MIC of 0.03 mg/L [S]. “Candida tropicalis isolate 116 (ERG11 copies: 2, Erg11p: no key change)” gave an MIC of 0.015 mg/L [S]. Test System “Candida tropicalis isolate 123 (ERG11 copies: 2, Erg11p: Y132F, S154F (heterozygous))” has an MIC of 0.03 mg/L [S]. With “Candida tropicalis isolate 214 (ERG11 copies: 2, Erg11p: no key change)” the MIC was 0.03 mg/L [S]. Work on “Candida tropicalis isolate 70 (ERG11 copies: 7, Erg11p: Y132F, S154F (heterozygous))” yielded an MIC of 0.03 mg/L [S]. Work on “Candida tropicalis isolate 144 (ERG11 copies: 2, Erg11p: no key change)” yielded an MIC of 0.03 mg/L [S]. “Candida tropicalis isolate 263 (ERG11 copies: 6, Erg11p: Y132F, S154F (heterozygous))” gave an MIC of 0.03 mg/L [S]. For “Candida tropicalis isolate 102 (ERG11 copies: 2, Erg11p: no key change)”, the MIC was 0.03 mg/L [S]. “Candida tropicalis isolate 242 (ERG11 copies: 2, Erg11p: no key change)” gave an MIC of 0.03 mg/L [S]. With “Candida tropicalis isolate 372 (ERG11 copies: 2, Erg11p: no key change)” the MIC was 0.03 mg/L [S]. “Candida tropicalis isolate 310 (ERG11 copies: 2, Erg11p: no key change)” was tested, and the MIC was 0.03 mg/L [S]. “Candida tropicalis isolate 129 (ERG11 copies: 7, Erg11p: Y132F, S154F (heterozygous))” gave an MIC of 0.03 mg/L [S]. In the case of “Candida tropicalis isolate 16 (ERG11 copies: 2, Erg11p: no key change)”, the MIC is reported as 0.03 mg/L [S]. Work on “Candida tropicalis isolate 136 (ERG11 copies: 2, Erg11p: no key change)” yielded an MIC of 0.03 mg/L [S]. “Candida tropicalis isolate 207 (ERG11 copies: 2, Erg11p: Y132F, S154F (homozygous))” was tested, and the MIC was 0.015 mg/L [S]. “Candida tropicalis isolate 46 (ERG11 copies: 2, Erg11p: no key change)” was tested, and the MIC was 0.03 mg/L [S]. For “Candida tropicalis isolate 389 (ERG11 copies: 2, Erg11p: no key change)”, the MIC was 0.03 mg/L [S].

What follows are test systems tested with C[C@@H]1[C@H](O)[C@@H](C)/C=C/C=C/C=C/C=C/C=C/C=C/C=C/[C@H](O[C@@H]2O[C@H](C)[C@@H](O)[C@H](N)[C@@H]2O)C[C@@H]2O[C@](O)(C[C@@H](O)C[C@@H](O)[C@H](O)CC[C@@H](O)C[C@@H](O)CC(=O)O[C@H]1C)C[C@H](O)[C@H]2C(=O)O [amphotericin B] (assay: CLSI broth microdilution.).
“Candida tropicalis isolate 140 (ERG11 copies: 2, Erg11p: Y132F, S154F (heterozygous))” gave an MIC of 1 mg/L [S]. In the case of “Candida tropicalis isolate 152 (ERG11 copies: 2, Erg11p: no key change)”, the MIC is reported as 0.5 mg/L [S]. “Candida tropicalis isolate 165 (ERG11 copies: 2, Erg11p: no key change)” gave an MIC of 1 mg/L [S]. For “Candida tropicalis isolate 193 (ERG11 copies: 8, Erg11p: Y132F, S154F (heterozygous))”, the MIC was 1 mg/L [S]. Work on “Candida tropicalis isolate 316 (ERG11 copies: 2, Erg11p: Y132F, S154F (heterozygous))” yielded an MIC of 1 mg/L [S]. For “Candida tropicalis isolate 240 (ERG11 copies: 2, Erg11p: no key change)”, the MIC was 0.5 mg/L [S]. Work on “Candida tropicalis isolate 418 (ERG11 copies: 2, Erg11p: no key change)” yielded an MIC of 0.25 mg/L [S]. For “Candida tropicalis isolate 379 (ERG11 copies: 2, Erg11p: no key change)”, the MIC was 1 mg/L [S]. For “Candida tropicalis isolate 395 (ERG11 copies: 2, Erg11p: no key change)”, the MIC was 1 mg/L [S]. “Candida tropicalis isolate 196 (ERG11 copies: 2, Erg11p: no key change)” was tested, and the MIC was 1 mg/L [S]. In the case of “Candida tropicalis isolate 190 (ERG11 copies: 5, Erg11p: Y132F, S154F (heterozygous))”, the MIC is reported as 1 mg/L [S]. In the case of “Candida tropicalis isolate 304 (ERG11 copies: 2, Erg11p: Y132F, S154F (heterozygous))”, the MIC is reported as 1 mg/L [S]. In the case of “Candida tropicalis isolate 173 (ERG11 copies: 2, Erg11p: no key change)”, the MIC is reported as 1 mg/L [S]. Test System “Candida tropicalis isolate 200 (ERG11 copies: 2, Erg11p: no key change)” has an MIC of 0.5 mg/L [S]. Test System “Candida tropicalis isolate 255 (ERG11 copies: 2, Erg11p: no key change)” has an MIC of 1 mg/L [S].

MIC of invasive clinical C. tropicalis isolates, CLSI broth microdilution (fluconazole 0.12-256 mg/L, up to 1,024 for the azole-resistant cluster and its neighbour group; other ranges not stated); higher = less susceptible. Call: susceptible or wild type [S] / resistant or non-wild type [R] by CLSI breakpoints or cut-offs; intermediate and dose-dependent carry no call. '<=' and '>=' at the end values are inferred; the source marks only some of them. Isolates are numbered anew.
